Experimental data reported in paper PMC5700166.
The entries are a selection whose mix differs from that of the whole data set. The list includes weakly bound sequences.

Experiments:
Experiment in all cases: protein-binding microarray (PBM)
Conditions in all cases: PBM: ~300 nM protein, 6 mM HEPES pH 7.8, 80 mM KCl, 0.5 mM EDTA, 0.5 mM EGTA, 6% glycerol, 35 ng/ul poly-dIdC, 1% milk, 1 h, room temperature; Ap Aiptasia and Nv Nematostella (sea anemones) / Co Capsaspora / Aq Amphimedon (sponge) / Dm Drosophila / Hu human; RHD is the Rel homology domain; high values mean tight binding; most listed sequences are background and not binding sites; double strand, one strand shown
GST-Ap-NF-kB RHD = target: T1, GST-Ap-NF-kB RHD (UniProt A0A913YAJ5)
T1 sequence: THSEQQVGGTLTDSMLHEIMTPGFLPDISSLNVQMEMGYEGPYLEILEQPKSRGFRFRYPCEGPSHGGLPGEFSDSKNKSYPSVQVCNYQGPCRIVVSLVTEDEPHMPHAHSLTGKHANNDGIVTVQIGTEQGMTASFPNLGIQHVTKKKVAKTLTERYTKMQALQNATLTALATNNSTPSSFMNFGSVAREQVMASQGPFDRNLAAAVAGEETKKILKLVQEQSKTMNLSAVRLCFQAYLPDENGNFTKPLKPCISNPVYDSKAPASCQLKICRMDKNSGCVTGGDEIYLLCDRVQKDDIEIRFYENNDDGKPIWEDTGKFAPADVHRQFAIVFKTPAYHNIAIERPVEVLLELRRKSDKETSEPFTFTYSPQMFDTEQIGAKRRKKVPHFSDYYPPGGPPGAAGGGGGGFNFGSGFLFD

[1] = target: T2, GST-Nv-NF-kB (Cys allele) (UniProt E5G601)
T2 sequence: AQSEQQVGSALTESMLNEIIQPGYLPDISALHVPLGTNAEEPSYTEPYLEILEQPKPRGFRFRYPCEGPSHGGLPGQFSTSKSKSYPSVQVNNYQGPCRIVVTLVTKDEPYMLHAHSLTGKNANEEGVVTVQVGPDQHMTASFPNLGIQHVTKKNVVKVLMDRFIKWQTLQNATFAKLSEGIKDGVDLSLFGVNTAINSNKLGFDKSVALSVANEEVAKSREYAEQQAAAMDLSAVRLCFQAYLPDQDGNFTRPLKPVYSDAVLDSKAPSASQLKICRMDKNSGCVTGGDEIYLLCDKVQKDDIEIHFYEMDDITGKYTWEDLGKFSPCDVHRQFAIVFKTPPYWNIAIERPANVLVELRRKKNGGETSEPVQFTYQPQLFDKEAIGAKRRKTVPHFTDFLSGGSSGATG

GST-Co-NF-kB = target: T3, GST-Co-NF-kB (UniProt F1ARL5)
T3 sequence: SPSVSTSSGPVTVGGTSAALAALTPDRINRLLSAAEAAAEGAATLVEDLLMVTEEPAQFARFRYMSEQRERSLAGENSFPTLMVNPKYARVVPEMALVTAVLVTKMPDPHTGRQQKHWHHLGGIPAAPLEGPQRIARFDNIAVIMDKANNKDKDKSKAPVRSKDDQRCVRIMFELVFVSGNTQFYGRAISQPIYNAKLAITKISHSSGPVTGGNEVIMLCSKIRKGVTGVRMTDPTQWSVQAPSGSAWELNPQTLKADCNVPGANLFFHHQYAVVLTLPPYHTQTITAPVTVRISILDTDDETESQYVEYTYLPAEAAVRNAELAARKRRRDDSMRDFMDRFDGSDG

GST-Dm-Relish = target: T4, GST-Dm-Relish (UniProt Q94527)
T4 sequence: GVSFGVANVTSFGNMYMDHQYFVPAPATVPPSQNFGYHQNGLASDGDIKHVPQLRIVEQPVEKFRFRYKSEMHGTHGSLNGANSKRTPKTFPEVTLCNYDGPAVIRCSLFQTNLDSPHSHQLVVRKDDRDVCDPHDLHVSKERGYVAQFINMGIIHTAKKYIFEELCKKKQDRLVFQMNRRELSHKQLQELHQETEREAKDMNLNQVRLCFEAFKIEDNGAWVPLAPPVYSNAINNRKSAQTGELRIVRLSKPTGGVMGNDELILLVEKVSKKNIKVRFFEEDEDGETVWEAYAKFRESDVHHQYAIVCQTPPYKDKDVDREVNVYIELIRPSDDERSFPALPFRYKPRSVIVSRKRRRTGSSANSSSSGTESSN

Row | Sequence | binding signal (GST-Ap-NF-kB RHD) | binding signal [1] | binding signal (GST-Co-NF-kB) | binding signal (GST-Dm-Relish)
1 | CCGATTAACATCATGGGGGAAAATGATGTTAATCGGGTCTTGATTCGCTTGACGCTGCTG | 5.67 z-score | 6.78 z-score | 10.9 z-score | –
2 | CCGATTAACATCAAGGGGGGTAATGATGTTAATCGGGTCTTGATTCGCTTGACGCTGCTG | 4.04 z-score | 4.87 z-score | 5.42 z-score | –
3 | CCGATTAACATCAGGACAGTCCATGATGTTAATCGGGTCTTGATTCGCTTGACGCTGCTG | 0.0459 z-score | 0.331 z-score | -0.89 z-score | -0.302 z-score
4 | CCGATTAACATCAAAATTTTCCATGATGTTAATCGGGTCTTGATTCGCTTGACGCTGCTG | -0.352 z-score | -0.442 z-score | 0.57 z-score | –
5 | CCGATTAACATCAAAGAAGTCCCTGATGTTAATCGGGTCTTGATTCGCTTGACGCTGCTG | 5.78 z-score | 6.68 z-score | 0.765 z-score | –
6 | CCGATTAACATCAAAATTTCCGTTGATGTTAATCGGGTCTTGATTCGCTTGACGCTGCTG | -0.159 z-score | 0.00738 z-score | 0.537 z-score | 0.911 z-score
7 | CCGATTAACATCACGGAAACTCCTGATGTTAATCGGGTCTTGATTCGCTTGACGCTGCTG | -0.682 z-score | -0.657 z-score | -0.198 z-score | 1.23 z-score
8 | CCGATTAACATCAAAAATTCCTATGATGTTAATCGGGTCTTGATTCGCTTGACGCTGCTG | -0.143 z-score | -0.445 z-score | 0.16 z-score | 1.74 z-score
9 | CCGATTAACATCAAAAAATTTTCTGATGTTAATCGGGTCTTGATTCGCTTGACGCTGCTG | -0.0832 z-score | 0.636 z-score | -0.54 z-score | 2.72 z-score
10 | CCGATTAACATCACGGAAGTTCCTGATGTTAATCGGGTCTTGATTCGCTTGACGCTGCTG | 0.234 z-score | 0.0581 z-score | 0.00567 z-score | 0.619 z-score
11 | CCGATTAACATCAAGGAATGTCCTGATGTTAATCGGGTCTTGATTCGCTTGACGCTGCTG | 0.153 z-score | 0.663 z-score | 0.0783 z-score | 0.0202 z-score
12 | CCGATTAACATCAGGAAAAGTCCTGATGTTAATCGGGTCTTGATTCGCTTGACGCTGCTG | 0.415 z-score | 1.25 z-score | -0.767 z-score | 2.98 z-score
13 | CCGATTAACATCAAAATTTCCAGTGATGTTAATCGGGTCTTGATTCGCTTGACGCTGCTG | -0.498 z-score | 0.454 z-score | 0.466 z-score | 0.998 z-score
14 | CCGATTAACATCAAAATTTCCGCTGATGTTAATCGGGTCTTGATTCGCTTGACGCTGCTG | 0.557 z-score | 0.281 z-score | 0.305 z-score | 0.212 z-score
15 | CCGATTAACATCAACAAAATTCCTGATGTTAATCGGGTCTTGATTCGCTTGACGCTGCTG | 0.0616 z-score | 0.251 z-score | 0.862 z-score | 1.6 z-score
16 | CCGATTAACATCAGGAATGTCCATGATGTTAATCGGGTCTTGATTCGCTTGACGCTGCTG | -0.569 z-score | -0.289 z-score | -0.635 z-score | 0.773 z-score
17 | CCGATTAACATCAAGGAAAATCCTGATGTTAATCGGGTCTTGATTCGCTTGACGCTGCTG | 0.346 z-score | 0.138 z-score | 0.839 z-score | 1.5 z-score
18 | CCGATTAACATCACCCCTCCCCGTGATGTTAATCGGGTCTTGATTCGCTTGACGCTGCTG | 5.01 z-score | 3.48 z-score | 4.15 z-score | 3.47 z-score
19 | CCGATTAACATCAGGAGATTCCATGATGTTAATCGGGTCTTGATTCGCTTGACGCTGCTG | -0.0423 z-score | -0.202 z-score | -0.4 z-score | 0.459 z-score
20 | CCGATTAACATCAGGAAATTTACTGATGTTAATCGGGTCTTGATTCGCTTGACGCTGCTG | 0.528 z-score | -0.141 z-score | 0.222 z-score | 1.36 z-score
21 | CCGATTAACATCAAAAATATTCCTGATGTTAATCGGGTCTTGATTCGCTTGACGCTGCTG | 0.061 z-score | 0.481 z-score | 0.0926 z-score | 0.981 z-score
22 | CCGATTAACATCACGGACTTTCCTGATGTTAATCGGGTCTTGATTCGCTTGACGCTGCTG | 0.705 z-score | 0.376 z-score | -0.24 z-score | 2.95 z-score
23 | CCGATTAACATCACGGAAAATCCTGATGTTAATCGGGTCTTGATTCGCTTGACGCTGCTG | 0.121 z-score | -0.243 z-score | 0.671 z-score | 1.04 z-score
24 | CCGATTAACATCAGAGCCCCCCCTGATGTTAATCGGGTCTTGATTCGCTTGACGCTGCTG | 4.71 z-score | 3.96 z-score | 3.1 z-score | 4.58 z-score
25 | CCGATTAACATCACGAAATTTCCTGATGTTAATCGGGTCTTGATTCGCTTGACGCTGCTG | 0.236 z-score | 0.541 z-score | 0.479 z-score | 0.545 z-score
26 | CCGATTAACATCAGGAAATTCTATGATGTTAATCGGGTCTTGATTCGCTTGACGCTGCTG | 0.15 z-score | -0.166 z-score | 0.294 z-score | 0.408 z-score
27 | CCGATTAACATCATAGTGAGGGGTGATGTTAATCGGGTCTTGATTCGCTTGACGCTGCTG | 2.05 z-score | 0.879 z-score | 1.74 z-score | 0.465 z-score
28 | CCGATTAACATCAGAAATTGCCCTGATGTTAATCGGGTCTTGATTCGCTTGACGCTGCTG | 0.63 z-score | 1.33 z-score | 0.272 z-score | 0.377 z-score
